Results: the supplement of paper PMC3334620
Over roughly 33,000 sequences, “E-score (-0.5 to 0.5)” has its median near -0.054; the highest 2% begin near 0.35. The list shows a part of the results.

Each sequence was assayed against T1, Stb5 (UniProt P38699) (assay: PBM E-score (8-mer binding enrichment) (E-score (-0.5 to 0.5)); higher = stronger / more preferred TF binding; most listed sequences are background and not binding sites). Conditions: protein concentration: 200 nM; construct: GST-full length.
T1 sequence: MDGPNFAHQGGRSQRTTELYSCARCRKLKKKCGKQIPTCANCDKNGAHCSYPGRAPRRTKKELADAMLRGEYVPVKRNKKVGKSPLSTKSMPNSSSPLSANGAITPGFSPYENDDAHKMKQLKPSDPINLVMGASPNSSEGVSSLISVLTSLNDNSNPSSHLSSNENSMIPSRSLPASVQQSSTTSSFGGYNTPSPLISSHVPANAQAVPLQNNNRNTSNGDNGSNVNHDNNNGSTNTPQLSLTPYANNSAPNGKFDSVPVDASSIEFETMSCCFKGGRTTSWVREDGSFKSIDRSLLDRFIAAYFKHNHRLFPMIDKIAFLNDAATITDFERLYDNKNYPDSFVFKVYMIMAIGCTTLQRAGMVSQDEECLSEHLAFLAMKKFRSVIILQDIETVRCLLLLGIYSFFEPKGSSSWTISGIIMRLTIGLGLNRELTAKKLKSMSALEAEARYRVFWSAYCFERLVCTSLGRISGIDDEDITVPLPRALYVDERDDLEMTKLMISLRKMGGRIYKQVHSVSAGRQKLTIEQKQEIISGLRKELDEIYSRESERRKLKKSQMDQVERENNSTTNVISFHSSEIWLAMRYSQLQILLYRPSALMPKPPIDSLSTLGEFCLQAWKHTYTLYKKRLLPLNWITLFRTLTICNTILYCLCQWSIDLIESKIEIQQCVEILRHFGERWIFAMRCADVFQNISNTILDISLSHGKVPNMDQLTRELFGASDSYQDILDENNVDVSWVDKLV
Experimental: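 Universal 'all 10-mer' protein binding microarrays (Agilent AMADID 015681) probed with GST-tagged S. cerevisiae TFs (full-length or DBD) made by in vitro transcription/translation (PURExpress), about 100-200 nM. Bound TF was detected with fluorescent anti-GST. Each ungapped 8-mer (which stands for itself and its reverse complement) is scored by the PBM enrichment score (E-score), a modified Wilcoxon-Mann-Whitney statistic from -0.5 to +0.5, computed with the Universal PBM Analysis Suite. Scale: above 0.35 generally sequence-specific binding.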

| Sequence | PBM E-score |
| --- | --- |
| AAGGGTTA | -0.109 |
| ATACGTTC | -0.11 |
| CAAATCGA | -0.301 |
| ACTCTATC | -0.0905 |
| GGTGCTTA | 0.233 |
| ACCCGGCA | 0.2 |
| GACGCCGC | 0.406 |
| CAACAAAG | -0.134 |
| CCGCAATA | 0.245 |
| GATACGAA | -0.192 |
| ACAGTACG | -0.197 |
| ATGCGCAT | -0.133 |
| ATCGGGCG | 0.186 |
| CGATGAGC | -0.031 |
| AATAGTAC | -0.0709 |
| CGTACGAG | -0.0856 |
| CGTTTGAA | 0.024 |
| AAGGTGGC | -0.235 |
| CTATGAAG | -0.0616 |
| GCGTGAAC | -0.0471 |
| ACAGGCTC | -0.0716 |
| ATTGCTAG | -0.201 |
| GGAGCTCA | -0.064 |
| GGGGTAAC | 0.177 |
| CGGTTCAA | 0.178 |

| Sequence | PBM E-score |
| --- | --- |
| AGCGTGGA | -0.0775 |
| GCCAGGGA | -0.224 |
| ATCACAAA | -0.101 |
| CCGTTAAA | 0.155 |
| AGTCCTTA | -0.262 |
| CTCAGAAC | -0.191 |
| CACAGCCG | 0.0932 |
| AACATCGA | -0.0388 |
| AGAAGTCA | -0.161 |
| ATACTGTC | -0.134 |
| CTCCTGCA | -0.176 |
| AGGCGCGC | 0.0846 |
| ATGTTTAA | -0.149 |
| AGAGAACG | -0.224 |
| CGGCTACG | 0.115 |
| ACAAAGGG | -0.117 |
| GAGTCTAA | -0.1 |
| CGACAGAA | 0.0516 |
| CGTGTTAA | -0.191 |
| GGCACACA | -0.0391 |
| CATCCGAG | -0.0144 |
| CGTGCCAC | -0.0488 |
| GCTTTCAA | -0.175 |
| CAGTCCAC | -0.204 |
| CCAGGTAG | -0.209 |

| Sequence | PBM E-score |
| --- | --- |
| CTTCAAAG | -0.124 |
| ATCAGGAT | -0.0766 |
| GCTTATCC | 0.019 |
| CAATTCGA | -0.187 |
| ATGTACAG | -0.179 |
| CGACGTAG | -0.00852 |
| ATCCGGAT | 0.223 |
| AGAGATGC | -0.137 |
| ATGTCCAG | -0.117 |
| AGAATTTC | -0.209 |
| ATCCGGTA | 0.159 |
| ATTTGAAA | -0.0141 |
| ACAACCCT | -0.328 |
| ACCGTACG | 0.091 |
| GGATCGAC | 0.0228 |
| CCAAAGGA | -0.174 |
| ACATCAAA | 0.0275 |
| CTTACCGC | 0.193 |
| AGACGCAG | -0.114 |
| GGACCGCA | 0.188 |
| ACTCAACA | -0.134 |
| CGTGAGGA | -0.106 |
| CTACCAAC | -0.148 |
| AGTTACCC | 0.0748 |
| GACGCTGC | -0.00518 |

| Sequence | PBM E-score |
| --- | --- |
| GCCAATGA | -0.261 |
| CAGTTTTA | 0.0314 |
| ACTAAAGA | -0.156 |
| ACCCTAGA | -0.348 |
| GTAGTTCA | -0.0618 |
| CAAGGCAC | -0.179 |
| CTGTGGAC | -0.228 |
| CCCCGGGC | 0.265 |
| GTACCTGA | -0.0737 |
| TATAAGCA | -0.0421 |
| AAGCACTG | -0.188 |
| AACTCCTA | 0.0494 |
| AGATATTG | -0.0198 |
| GAGGACTC | -0.22 |
| CCGTTTGC | 0.233 |
| AACCTGAT | -0.217 |
| AATACTGT | -0.135 |
| CACCGGCG | 0.417 |
| GGCAGAGA | -0.156 |
| AATATAAG | 0.0277 |
| CCAGCTTA | -0.0556 |
| TGACGCAA | -0.174 |
| AACTGCAT | -0.354 |
| CAATCCTC | -0.193 |
| CGGCCATC | 0.157 |

| Sequence | PBM E-score |
| --- | --- |
| ACGAATCA | -0.0604 |
| AATATGCT | 0.00961 |
| AGAAGTTG | -0.303 |
| AGTGGGGG | -0.114 |
| ATGGAGCC | -0.0717 |
| TAATGTGA | -0.149 |
| CTATATAA | 0.103 |
| CAGCCAAC | -0.287 |
| CGGACCCA | 0.381 |
| AATATTCT | -0.0217 |
| CAGAACTG | -0.218 |
| AGCGGTAT | 0.351 |
| AACGTGAG | -0.116 |
| AAGGCAGG | -0.0754 |
| GGTTGAGA | 0.0761 |
| TAAAAAAA | 0.00986 |
| ACTGTACA | -0.292 |
| CACGCCGC | 0.293 |
| CGCCGACA | 0.354 |
| AGCGTGTC | -0.145 |
| ACTTCTAC | -0.279 |
| TATCTGGA | -0.2 |
| CGGTGTGC | 0.219 |
| ACGGCTTG | -0.0845 |
| ATTCCTAG | -0.0861 |

| Sequence | PBM E-score |
| --- | --- |
| ATTCAGGC | -0.0849 |
| CCAACCCA | -0.196 |
| ACGACCAT | -0.206 |
| CCACGGTC | 0.143 |
| GGCGCTAC | 0.285 |
| AAAGGCGA | -0.14 |
| CGGATCGA | 0.145 |
| ACACGGTG | 0.299 |
| GTGCATCA | -0.14 |
| GGCAGCTA | -0.0896 |
| AGAGCGTC | -0.203 |
| AGGTCAAT | -0.16 |
| AGGCAACA | -0.195 |
| GGGCGGTA | 0.346 |
| AGGCGGAA | 0.131 |
| TCGCACAA | -0.197 |
| ATACATTG | -0.0394 |
| ATGTAGGC | 0.0664 |
| CGAATTAG | -0.0537 |
| GCGGACTA | 0.332 |
| GGGTATAC | 0.224 |
| CACCTTCG | 0.0477 |
| TCGCTGAA | -0.205 |
| CTACTTCA | -0.161 |
| CGCACCAC | 0.0134 |

| Sequence | PBM E-score |
| --- | --- |
| ATAAGTGG | 0.0366 |
| AACGTGCG | 0.00856 |
| ACACCAAT | 0.0231 |
| CCTCCGGC | 0.302 |
| ACCAGGAT | -0.102 |
| TCCTGACA | -0.374 |
| CTATATGA | 0.0326 |
| CCTCTACG | -0.181 |
| GCAGATCA | -0.107 |
| CAAGTGCA | -0.299 |
| AATTACAC | 0.14 |
| ATCGTATA | -0.0233 |
| ATTATAGG | 0.059 |
| AAACCAAC | -0.186 |
| ACTGACCA | -0.131 |
| ATGGCGGC | 0.248 |
| AAACCTAT | -0.127 |
| TAATCAAA | 0.00464 |
| GCAATTAC | 0.139 |
| CAATAAGG | -0.0479 |
| ACTAGGGA | -0.154 |
| ACTACCAT | -0.125 |
